First the molecules themselves.
B1: Fusion protein BY31.19 (Fc fusion)
chain: VIHVTKEVKEVATLSCGHNVSVEELAQTRIYWQKEKKMVLTMMSGDMNIWPEYKNRTIFDITNNLSIVILALRPSDEGTYECVVLKYEKDAFKREHLAEVTLSVKADFPTPSDKRV[human IgG4 Fc with S228P (EU numbers) left out here]
B2: Fusion protein BY24.12 (Fc fusion)
chain: VIHVTKEVKEVATLSCGHNVSVEELAQTRIYWQKEKKMVLTMMSGDMNIWPEYKNRTIFDITNNLSIVILALRPSDEGTYECVVLKYEKDAFKREHLAEVTLSVKADFPTPSDKRV[human IgG4 Fc with S228P (EU numbers) left out here]GGGSGGGGSGGGGSASDTGRPFVEMYSEIPEIIHMTEGRELVIPCRVTSPNITVTLKKFPLDTLIPDGKRIIWDSRKGFIISNATYKEIGLLTCEATVNGHLYKTNYLTHRQTNTIIDVVLSPSHGIELSVGEKLVLNCTARTELNVGIDFNWEYPSSKHQHKKLVNRDLKTQSGSEMKKFLSTLTIDGVTRSDQGLYTCAASSGLMTKKNSTFVRVHE
B3: Fusion protein BY24.5 (protein)
light: DIQMTQSPSSVSASIGDRVTITCRASQGIDNWLGWYQQKPGKAPKLLIYDASNLDTGVPSRFSGSGSGTYFTLTISSLQAEDFAVYFCQQAKAFPPTFGGGTKVEIKRTVAAPSVFIFPPSDEQLKSGTASVVCLLNNFYPREAKVQWKVDNALQSGNSQESVTEQDSKDSTYSLSSTLTLSKADYEKHKVYACEVTHQGLSSPVTKSFNRGEC
heavy: EVQLVQSGGGLVKPGGSLRLSCAASGFTFSSYSMNWVRQAPGKGLEWVSSISSSSSYIYYADSVKGRFTISRDNAKNSLYLQMNSLRAEDTAVYYCARVTDAFDIWGQGTLVTVSSASTKGPSVFPLAPCSRSTSESTAALGCLVKDYFPEPVTVSWNSGALTSGVHTFPAVLQSSGLYSLSSVVTVPSSSLGTKTYTCNVDHKPSNTKVDKRV[human IgG4 Fc with S228P (EU numbers) left out here]GGGSGGGGSGGGGSVIHVTKEVKEVATLSCGHNVSVEELAQTRIYWQKEKKMVLTMMSGDMNIWPEYKNRTIFDITNNLSIVILALRPSDEGTYECVVLKYEKDAFKREHLAEVTLSVKADFPTPS

The target in this assay is Recombinant human CD28 (human) (UniProt P10747). Put plainly: ELISA, plate coated with recombinant human CD28, anti-human HRP detection. Background: In an ELISA, binding on a coated surface is turned into a signal by an enzyme label.
For orientation: EC50 means the concentration needed to bring the measured effect to its halfway point. As to B1, the EC50 is 24.3 µg/mL.

As for B2, the concentration for a half-maximal effect (EC50) amounted to 13.2 µg/mL. For B3 the value was 35.1 µg/mL.

The values are drawn from patent US20220106389A1.
